Laboratory results as given in PubChem BioAssay AID624417 (National Center for Advancing Translational Sciences (NCATS), 2012).
Screen size: about 410,000 compounds; about 6,400 (1.6%) were called active. This list was built around the results that the source calls inconclusive (neither active nor inactive); the mix of calls is not that of the screen. Calls follow the shape of the dose curve; as a rule, active = well fitted inhibition curve with a large enough effect; inconclusive = small, poorly fitted or top-dose-only effect; inactive = no such curve, though single readings can be large or run the other way. No potency is given beside an inconclusive call; the fits are too rough.

Each compound was assayed against Glucagon-like peptide 1 receptor (Homo sapiens) (UniProt P43220) (assay: qHTS of GLP-1 Receptor Inverse Agonists (Inhibition Mode)). Conditions: HEK293 GLP-1R CRE-luciferase, luminescence, 24 h, GLP-1R form is constitutively active; series mostly up to 38.3 µM.
Summary of the method: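 Using stably transfected HEK293 (constitutively active GLP-1R, cAMP-luciferase reporter), compounds were incubated 24 hr and luciferase measured by luminescence.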
Also: nearly all actives have a fitted effect of over 55% in size.
Potency is read from the fitted curve at half-maximal effect; tags tell the direction and shape of the fitted curve.

Chain of UniProt P43220 (P43220 whole entry, looked up): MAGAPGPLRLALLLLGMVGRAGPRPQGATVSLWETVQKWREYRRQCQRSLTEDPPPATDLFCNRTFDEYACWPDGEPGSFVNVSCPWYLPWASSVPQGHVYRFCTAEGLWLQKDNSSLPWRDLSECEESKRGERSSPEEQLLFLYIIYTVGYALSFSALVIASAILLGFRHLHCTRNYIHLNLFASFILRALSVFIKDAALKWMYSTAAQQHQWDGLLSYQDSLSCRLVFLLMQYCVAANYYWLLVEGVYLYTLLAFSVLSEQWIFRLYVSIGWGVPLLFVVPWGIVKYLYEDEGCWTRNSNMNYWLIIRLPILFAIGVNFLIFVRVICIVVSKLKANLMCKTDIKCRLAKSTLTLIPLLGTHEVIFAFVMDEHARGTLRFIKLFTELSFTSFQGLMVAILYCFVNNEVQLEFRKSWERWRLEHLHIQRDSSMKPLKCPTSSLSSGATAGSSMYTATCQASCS

Compound	Potency
O=C(CCCCCCCC(=O)N1CCCCCC1)N1CCCCCC1	inconclusive [inhibitor, single point]
CCOC(=O)c1c(C)c(-c2ccccc2)n(CC(=O)NCc2ccccc2)c1C	inactive
CCOc1ccc(NC(=O)N2CCN(Cc3ccc4c(c3)OCO4)CC2)cc1	inconclusive [inhibitor, single point]
CN1C2C=CC(=O)C1C1C(=O)N(c3ccccc3)C(=O)C12 (centres undefined)	inconclusive [inhibitor, single point]
CC(C)(C)NC(=O)C(c1ccncc1)n1c(-c2ccc(C(F)(F)F)cc2)nc2ccccc21 (centres undefined)	inconclusive [inhibitor, single point]
O=c1[nH]cc(N=Cc2cc(Cl)cc(Cl)c2O)c(=O)[nH]1	inactive
CCOC(=O)c1ccc(NS(=O)(=O)c2ccc3c(c2)CCN3C(=O)CC)cc1	inactive
Cc1cccc(COc2ccc(S(=O)(=O)N3CCOCC3)cc2[N+](=O)[O-])c1	inconclusive [inhibitor, partial curve, poor fit]
COc1ccc(C)cc1S(=O)(=O)Nc1cccc(Cl)c1Cl	inconclusive [inhibitor, partial curve, poor fit]
Cc1ccc(C(=O)NCCCN2CCOCC2)cc1S(=O)(=O)N1CCCCC1	inconclusive [inhibitor, single point]
CCOC(=O)c1c(CSc2ccccc2)oc2ccc(O)cc12	inconclusive [inhibitor, partial curve, poor fit]
Cc1[nH]c(C(=O)N/N=C/c2ccc(N(C)C)cc2)c(C)c1C(=O)N/N=C/c1ccc(N(C)C)cc1	inconclusive [inhibitor, full curve, poor fit]
Cc1ccc(NC(=O)Cn2c(=O)n(Cc3ccco3)c(=O)c3sc4ccccc4c32)c(C)c1	inactive
FC(F)(F)c1ccccc1NC(=S)N1CCc2ccccc2C1	inconclusive [inhibitor, single point]
COc1ccc(/C=C/c2nc(-c3ccccc3O)n[nH]2)cc1	inconclusive [inhibitor, single point]
N#Cc1cccc(NC(=O)CSc2nnc(-c3n[nH]c4ccccc34)o2)c1	inactive
CCOC(=O)C1(CCOc2ccccc2)CCN(Cc2ccc(COC)o2)CC1	inconclusive [inhibitor, partial curve, poor fit]
Cc1ccc(-c2ccc(CN3C(C(C)C)C(=O)N(Cc4cn(Cc5ccco5)nn4)CCS3(=O)=O)cc2)cc1 (centres undefined)	inconclusive [inhibitor, single point]
COc1ccc(CCNC(=O)CNCCc2ccc(F)cc2)cc1	inconclusive [inhibitor, single point]
CN(Cc1ccccc1)C(=O)c1ccc(NC(=O)Cc2ccc(NC(=O)C3CCCN(C(=O)CCc4ccccc4)C3)cc2)cc1 (centres undefined)	inconclusive [inhibitor, full curve]

Compound	Potency
CCOC(=O)C1=C(C)Nc2nnnn2C1c1ccc(OC)c(Br)c1 (centres undefined)	inconclusive [inhibitor, single point]
COc1ccccc1N1CCN(C(=O)c2ccc3c(c2)N(Cc2cc(C)ccc2C)C(=O)c2ccccc2S3(=O)=O)CC1	inconclusive [inhibitor, partial curve, poor fit]
CN(Cc1cccc(Cl)c1Cl)CC(O)COc1ccccc1 (centres undefined)	inconclusive [inhibitor, partial curve, poor fit]
Cc1[nH]c(=S)sc1Cc1ccc(F)cc1	inconclusive [inhibitor, partial curve, poor fit]
CCC(CC)C(=O)Nc1nnc(S(=O)(=O)Nc2ccccc2C)s1	inconclusive [inhibitor, partial curve]
O=C(c1ccccc1)c1ccc(OCCCN2CCCC2)cc1	inconclusive [inhibitor, partial curve, poor fit]
S=C(NC1CCCC1)N1CCN(c2cccc(Cl)c2)CC1	inconclusive [inhibitor, partial curve, poor fit]
Cc1ccc(CNC(=O)c2ccccc2CCc2ccccc2)cc1	inconclusive [inhibitor, single point]
OCCCNc1nc(-c2ccc(Br)cc2)nnc1-c1ccc(Cl)cc1	inconclusive [inhibitor, partial curve, poor fit]
COc1ccc(NC(=O)c2ccc(NCC3CCCO3)c([N+](=O)[O-])c2)cc1 (centres undefined)	inconclusive [inhibitor, single point]
Cc1ccc(S(=O)(=O)N/N=C2/CC(c3ccccc3)Oc3ccccc32)cc1 (centres undefined)	inconclusive [inhibitor, partial curve, poor fit]
N#CC1(CCCN2CCCCC2)c2ccccc2CCc2ccccc21	inconclusive [inhibitor, single point]
CC1(C(=O)N2CCC(CC3CC(c4cccc(Br)c4)=NO3)(C(=O)NCC3CCCCC3)CC2)CC1 (centres undefined)	inconclusive [inhibitor, partial curve, poor fit]
Cc1ccc(C(=O)N2[C@@H]3CN(C)C(=O)[C@@]2(C)[C@H]2C(=O)N(Cc4ccccc4)C(=O)[C@@H]32)cc1	inactive
CCOC(=O)c1c(NC(=O)c2ccc(S(=O)(=O)N(CC(C)C)CC(C)C)cc2)sc2c1CCN(CC)C2	inactive
COc1cc(OC)c(N(C)S(=O)(=O)c2cccc(C(=O)NC3=NCCS3)c2)cc1Cl	inconclusive [inhibitor, partial curve, poor fit]
Cc1cccc(N2CCN(CC3CCCCC3)CC2)c1C	inactive
COc1ccccc1N(C)S(=O)(=O)c1ccc(C(=O)Nc2cc(OC)c(OC)c(OC)c2)cc1	inconclusive [inhibitor, single point]
COCc1ccc(C(=O)N2CCCC(Nc3ccc(C(C)C)cc3)C2)o1 (centres undefined)	inconclusive [inhibitor, partial curve]
